Results as given in the supplement of paper PMC3334620.
In all, about 33,000 sequences were measured (“E-score (-0.5 to 0.5)”: median about -0.054, highest 2% from about 0.39 on). This is one part of the list.

Biological target: Ylr278c (UniProt Q05854)
Assay: PBM E-score (8-mer binding enrichment) (E-score (-0.5 to 0.5)); higher = stronger / more preferred TF binding; most listed sequences are background and not binding sites
Settings: protein concentration: 200 nM; construct: GST-DNA-binding domain
How it was run: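 Each ungapped eight-base word and its reverse complement, pooled, received an E-score from the Universal PBM Analysis Suite. Underlying scans, normalised with masliner, recorded fluorescent anti-GST bound to GST-tagged yeast transcription factors. These were applied at about 100-200 nM to universal all-10-mer Agilent arrays double-stranded by primer extension.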

Row | Sequence | PBM E-score
1 | ACCGGTGC | 0.253
2 | AATAGTTC | -0.00943
3 | AATAACTC | 0.0539
4 | GAAACTTC | 0.0593
5 | ATCCGTCC | 0.18
6 | CGGGTACC | -0.0162
7 | ATTTCCAC | 0.127
8 | AGCTCTTG | -0.261
9 | ATTAAAGG | 0.0275
10 | AGTGCTGA | -0.115
11 | ACGGCGGC | 0.167
12 | CCCTTACC | -0.256
13 | ACGAACCG | -0.0765
14 | AGCCTAAT | -0.184
15 | AATATTAA | 0.0847
16 | ATATATGA | -0.163
17 | AACAACGC | -0.0163
18 | CGGTCCAG | 0.00468
19 | ACGCTAGG | -0.279
20 | CTTTCGTA | -0.173
21 | GACGTACC | -0.0756
22 | GCCAGGCA | -0.0104
23 | CACCCTTA | -0.108
24 | ACGTCAAA | -0.156
25 | GTATGATA | -0.0851

Row | Sequence | PBM E-score
26 | AAGCTTGG | -0.227
27 | ACGCCATG | -0.318
28 | CGCTGGTA | -0.125
29 | AACCACCT | 0.081
30 | AGGAGGAA | -0.165
31 | ACCCAAGT | -0.215
32 | ATACTGGG | -0.0575
33 | AACTAGTC | -0.168
34 | AACGATCG | 0.0379
35 | AGCGTGAC | -0.0417
36 | CAGGAACC | -0.146
37 | CTCTTCCC | -0.134
38 | CACGTCAA | -0.202
39 | ATATCCAT | -0.104
40 | AATTGGTC | 0.0862
41 | AGATCTAT | -0.219
42 | CGCGACGA | 0.0288
43 | CAAGCTAG | -0.25
44 | CAAACACA | -0.233
45 | AGGTCGCC | 0.0324
46 | AGAGTAGA | -0.0108
47 | CACGTTCC | -0.0503
48 | ACCGGTTC | 0.234
49 | CATCTAGC | -0.143
50 | ATGAAGCG | -0.0128

Row | Sequence | PBM E-score
51 | AAACTTAT | 0.0821
52 | AGGCAAGA | -0.222
53 | TGGGTCAA | -0.254
54 | CTTTATTA | -0.172
55 | CATCCGCA | 0.191
56 | CGACGACG | 0.0129
57 | CGAAAATA | 0.137
58 | GAGAGTTA | -0.158
59 | ATCTCTTC | -0.0198
60 | ACTCGCGC | 0.152
61 | AGATCAGC | 0.0216
62 | CCATTACC | 0.0409
63 | CACGGCCG | 0.234
64 | GATTTTGA | 0.0907
65 | AATTTATG | 0.0615
66 | AGGACGAC | -0.166
67 | CATACGCA | -0.0371
68 | GTTGATGA | 0.0375
69 | TATATAAA | -0.0633
70 | ACCTCACC | 0.0171
71 | CATTCTCA | -0.0558
72 | ACTCATGA | -0.182
73 | CCAATGGG | -0.166
74 | TATAATAA | 0.0321
75 | AGACCTTA | -0.115

Row | Sequence | PBM E-score
76 | AGATTACG | 0.154
77 | TTTCCAAA | -0.0606
78 | AGGTCTAA | -0.0866
79 | ACATGCCC | -0.128
80 | CCCGTAGA | -0.0186
81 | ACCACGGT | -0.197
82 | ACAATCGC | 0.154
83 | CAAGTCCG | 0.455
84 | AAATATGT | 0.19
85 | AAAATACT | 0.11
86 | ATATTCAG | -0.0289
87 | CCCACCAG | -0.212
88 | ATGAGTCA | -0.274
89 | GTCAGCGA | -0.131
90 | AATCAGGG | -0.199
91 | ACGGGACG | 0.0663
92 | ATGAATTG | -0.0937
93 | GCACCCCA | 0.0499
94 | TGTGAACA | -0.123
95 | GTGTTGGA | -0.122
96 | CACCTTAA | -0.162
97 | CGGGTCAA | 0.266
98 | CATCGTAC | -0.204
99 | GTCGACAC | -0.141
100 | TACGTAAA | -0.441

Row | Sequence | PBM E-score
101 | AATTATGG | -0.0486
102 | CCAGCCCC | 0.0145
103 | TGGTCAAA | -0.222
104 | CCGTTAGG | 0.0236
105 | AGGCCAAT | -0.0939
106 | AGCTAACA | -0.174
107 | CAATAGAC | -0.115
108 | ATCCCTAC | -0.0443
109 | GAGAGGGA | -0.239
110 | ACATCCCA | -0.131
111 | AACTAAGG | -0.149
112 | CGACCCTC | -0.00161
113 | GGCTTTGA | 0.131
114 | AAGGCGTG | -0.117
115 | GACGCCCA | -0.036
116 | AGGCGAAC | -0.157
117 | GAGAAGCA | -0.0512
118 | CTAATAAA | -0.0675
119 | GCTAAGTA | -0.1
120 | CCTTTGCA | -0.219
121 | AGCTGACA | -0.133
122 | AGCGGCCT | 0.129
123 | CCGTATTC | 0.202
124 | ACGCTCGA | -0.123
125 | AGTTGTAG | -0.0909

Row | Sequence | PBM E-score
126 | GCTGCGCA | 0.163
127 | ACAAGGGA | -0.21
128 | AGTAAGAG | -0.244
129 | CACACCGC | 0.107
130 | AACATAGG | -0.121
131 | TAAACTGA | -0.0238
132 | GCGTCACA | -0.167
133 | ACGTCGGC | 0.239
134 | CCTCCAAA | -0.14
135 | ACCGCACA | -0.0956
136 | ACCTATTC | 0.0665
137 | AAAGGCTA | -0.307
138 | GATTCTAA | -0.182
139 | GTCATTGA | -0.154
140 | AAATCGGA | 0.43
141 | AAGTCCGG | 0.481
142 | ATCTATCG | -0.084
143 | ACGGAGCT | 0.395
144 | ATTTTCTG | 0.0498
145 | AAGCCCCA | -0.203
146 | ATAACTGC | -0.058
147 | AGCAAGTC | -0.121
148 | CGGACTGA | 0.255
149 | GTAACACA | -0.0154
150 | AACAGTAG | -0.124

Row | Sequence | PBM E-score
151 | CGCCCCTA | 0.129
152 | CAAGAGAA | 0.081
153 | ACGACGTC | -0.0271
154 | CGTACTGA | 0.109
155 | GGACTAAA | 0.211
156 | CGATCGGC | 0.282
157 | AAAGTCGC | 0.146
158 | AATCAGAG | -0.0351
159 | ATGGGCAG | -0.296
160 | CCCGAAGA | 0.156
161 | CCAAACGA | -0.0829
162 | GCGAGAAC | 0.148
163 | TACGGCCA | 0.0517
164 | GCATCCGA | 0.27
165 | AGTCGACC | -0.00807
166 | ACAGCACA | -0.0319
167 | GCCCCGCA | 0.168
168 | CGGCTTTA | 0.306
169 | ACTTAGCT | -0.263
170 | ATCTGTAA | 0.019
171 | AACTAACG | 0.0425
172 | ACCTGTCT | -0.132
